In paper PMC4336329 (PLoS ONE, 2015):
The whole screen tested about 310,000 compounds, of which about 2,200 (0.71%) showed an effect of 50% or more. Effects have a minus sign here. Some of the results follow.

What follows are compounds tested against human ether-à-go-go-related gene (hERG) potassium channel (human, UniProt Q12809) (assay: primary screen, population patch clamp on CHO cells stably expressing hERG).
Chain of human ether-à-go-go-related gene (hERG) potassium channel (Q12809 whole entry, looked up): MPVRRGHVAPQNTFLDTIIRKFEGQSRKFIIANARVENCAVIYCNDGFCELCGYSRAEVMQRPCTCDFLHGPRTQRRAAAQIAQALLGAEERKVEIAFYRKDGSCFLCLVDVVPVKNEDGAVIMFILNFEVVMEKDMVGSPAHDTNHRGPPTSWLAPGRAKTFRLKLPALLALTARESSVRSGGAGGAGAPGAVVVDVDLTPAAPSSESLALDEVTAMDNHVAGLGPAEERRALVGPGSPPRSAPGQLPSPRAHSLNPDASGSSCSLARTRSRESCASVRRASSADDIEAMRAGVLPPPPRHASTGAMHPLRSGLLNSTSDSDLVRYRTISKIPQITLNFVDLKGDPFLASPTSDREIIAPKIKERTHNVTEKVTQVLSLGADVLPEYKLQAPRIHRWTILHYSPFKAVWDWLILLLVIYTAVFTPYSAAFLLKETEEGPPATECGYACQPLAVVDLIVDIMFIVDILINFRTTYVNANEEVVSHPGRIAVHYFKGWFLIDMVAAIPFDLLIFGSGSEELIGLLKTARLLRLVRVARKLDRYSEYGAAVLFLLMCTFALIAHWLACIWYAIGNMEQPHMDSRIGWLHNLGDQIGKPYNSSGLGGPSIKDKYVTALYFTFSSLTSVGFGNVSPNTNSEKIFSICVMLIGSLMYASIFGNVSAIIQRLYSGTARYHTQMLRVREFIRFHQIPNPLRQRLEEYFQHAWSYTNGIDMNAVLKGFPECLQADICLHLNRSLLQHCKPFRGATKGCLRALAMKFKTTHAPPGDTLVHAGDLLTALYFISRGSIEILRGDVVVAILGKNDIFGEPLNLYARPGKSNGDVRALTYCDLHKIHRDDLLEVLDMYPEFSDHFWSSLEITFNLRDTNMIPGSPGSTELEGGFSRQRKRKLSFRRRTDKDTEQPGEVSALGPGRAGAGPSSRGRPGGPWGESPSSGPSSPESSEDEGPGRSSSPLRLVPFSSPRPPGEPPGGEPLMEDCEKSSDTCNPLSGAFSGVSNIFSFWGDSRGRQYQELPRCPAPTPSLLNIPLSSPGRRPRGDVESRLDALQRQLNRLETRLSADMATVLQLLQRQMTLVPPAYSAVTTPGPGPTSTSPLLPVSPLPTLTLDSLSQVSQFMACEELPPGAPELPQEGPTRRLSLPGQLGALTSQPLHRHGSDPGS

Row | Compound | hERG current change (%, negative = inhibition) at 1uM [%]
1 | CSCCC(NC(=O)c1ccco1)C(=O)NCC(c1ccco1)N1CCCCC1 (centres unmarked) | 6.49
2 | Cc1ccc(CSc2ccc(-c3cccs3)nn2)cc1 | 5.61
3 | CCOc1cc2c(cc1OCC)-n1cccc1C(c1ccc(OC(F)F)cc1)NC2.Cl (centres unmarked) | -47.9
4 | CCCn1c(N2CCN(Cc3ccc(Cl)cc3)CC2)nc2ccccc21.Cl | -4.77
5 | CC(C)C[C@H]1COCCS(=O)(=O)N1Cc1cccc(Cl)c1 | 10.1
6 | CC(=O)N1CCC(N(C(=O)Nc2c(F)cccc2F)C(C)C)CC1 | 17.4
7 | Nc1ncnc2nc(SCC(=O)N3CCN(c4ccccc4)CC3)[nH]c12 | -0.857
8 | CCNC(=O)NC(=O)COC(=O)C1CSC2(C)CCC(=O)N12 (centres unmarked) | 11.3
9 | CCOC(=O)c1cccc(NC(=O)CCn2cccc2)c1 | 2.9
10 | Cc1c(C(=O)N2CCCC2)c(S(=O)(=O)Nc2cccc(Br)c2)c(C)n1C | 6.78
11 | CCOCCCNC(=O)c1c[nH]c2cc(C)ccc2c1=O | -0.128
12 | CCNC(=S)Nc1cccc(S(=O)(=O)NC2=NCCC2)c1 | 7.43
13 | Cl.OC(c1ccc(Cl)cc1)c1nccc2ccccc12 (centres unmarked) | 8.91
14 | COc1ccc(C(=O)NCC(=O)OCc2ccc([N+](=O)[O-])cc2)cc1 | -1.55
15 | COCCn1c(C)cc(/C=N/NC(=O)c2cc3ccccc3cc2O)c1C | 21.4
16 | Cc1ccc(NC(=O)c2oc3ccccc3c2NC(=O)C2CCCO2)cc1C (centres unmarked) | -7.6
17 | N#Cc1ccc(OCC(=O)OCC(=O)NCCC2=CCCCC2)cc1 | 0.236
18 | CCOc1ccc(S(=O)(=O)n2nc(C)cc2C)c2ccccc12 | 9.91
19 | CCc1cccc(OCC(=O)Nc2ccc(S(=O)(=O)Nc3onc(C)c3C)cc2)c1 | 9.89
20 | COc1cccc(/C=N/n2c(=O)[nH]c3ccccc32)c1OC | 16.2
21 | COc1ccc(CN2CC34C=CC(O3)C(C(=O)O)C4C2=O)cc1 (centres unmarked) | 5.7

Row | Compound | hERG current change (%, negative = inhibition) at 1uM [%]
22 | COC(=O)[C@]1(C)N[C@H](c2ccc(SC3CCCCC3)c(OC)c2)[C@@H]2C(=O)N(C)C(=O)[C@@H]21.O=C(O)C(F)(F)F | 9.14
23 | CC(=O)N1CCC(N(CCN2CCOCC2)C(=S)Nc2cccc(C)c2C)CC1 | 15.1
24 | Cc1nnc(NC(=O)CSc2nnc(CNC(=O)c3ccc(S(=O)(=O)N(C)C)cc3)o2)s1 | 18.1
25 | NC(=O)CSc1nnc(-c2ccco2)n1N | 10.1
26 | COc1cc(OC)c(OC)cc1/C=N/Nc1ncnc2c1[nH]c1ccc(C)cc12 | 11
27 | O=C(Nc1ccc(C(=O)O)cc1)Nc1cccc([N+](=O)[O-])c1 | 17.4
28 | Cc1ccccc1C(=O)Nc1c2c(nc3ccccc13)CCCC2 | 6.49
29 | Cc1nc(COc2ccc(C(=O)Nc3ccccc3N3CCOCC3)cc2)cs1 | -12.1
30 | O=C(O)c1cc(N/N=C/c2ccc(N3CCOCC3)s2)ccc1Cl | 6.42
31 | COc1cccc(C(=O)NCC(=O)N/N=C/c2cccs2)c1 | 10.7
32 | COc1ccc(-n2nc3c(c2NC(=O)C(C)Oc2ccccc2)CS(=O)C3)cc1 (centres unmarked) | 13
33 | [O-]/[N+](=C\c1ccncc1)c1ccc(Br)cc1 | 11.9
34 | N#Cc1ccc(-c2csc(NC(=O)c3cc(-c4cccs4)nc4ccccc34)n2)cc1 | 5.22
35 | COC(=O)c1c(NC(=O)CN2CCN(S(=O)(=O)c3ccccc3[N+](=O)[O-])CC2)sc2c1CCC(C)C2 (centres unmarked) | 9.66
36 | Cc1ccc(NC(=O)c2cc(S(=O)(=O)N3CCc4ccccc43)cn2C)cc1C | -1.49
37 | CCOC(=O)C1=NN(C(=O)c2ccccc2)C(O)(c2ccc(C)cc2)C1 (centres unmarked) | -1.77
38 | Cc1ccc(S(=O)(=O)/C=C/c2ccccc2)cc1 | 21.1
39 | COc1cccc(NC(=O)c2ccc3c(c2)N(CC(=O)N2CCCCC2)C(=O)C(C)(C)O3)c1 | 4.38
40 | CCOc1ccc(NC(=O)CCCNC(=O)Cn2cnc3sc(C)c(C)c3c2=O)cc1 | 19.5
41 | Fc1ccc(-c2n[nH]c(=S)n2/N=C/c2c[nH]c3ccccc23)cc1 | -5.95
42 | Nc1nc(SCC(=O)Nc2ccc(Br)cc2F)n[nH]1 | 9.94

Row | Compound | hERG current change (%, negative = inhibition) at 1uM [%]
43 | NC(=O)c1c(NC(=O)CSc2nnc(-c3ccco3)n2-c2ccccc2)sc2c1CCC2 | 9.79
44 | Cc1cc(/C=N/NC(=O)C(O)(c2ccccc2)c2ccccc2)c(C)n1-c1cccc(C(=O)O)c1 | 11.8
45 | O=C(Nc1ccc(S(=O)(=O)N2CCOCC2)cc1)c1ccco1 | -18.9
46 | COc1cc(SC)ccc1C(=O)Nc1ccc2c(c1)CCN2S(C)(=O)=O | 9.24
47 | CC(C)c1ccc(N2C=Nc3ccc(C(C)C)cc3C2)cc1 | 6.82
48 | Cc1onc(-c2ccccc2)c1-c1nnc(CN2CCN(S(=O)(=O)c3ccccc3F)CC2)o1 | -6.2
49 | CCC(C)(C)C1CCc2[nH]nc(C(=O)NCc3ccc(OC)cc3)c2C1 (centres unmarked) | 14.6
50 | COc1cccc(/C=N/N2C(=O)NC3(CCCCC3)C2=O)c1O | 6.48
51 | COc1cccc(CNCc2ccc(OC)c3ccccc23)c1OC.O=C(O)C(=O)O | 17.4
52 | CCOC(=O)Cc1csc(NC(=O)c2cccc([N+](=O)[O-])c2)n1 | 10.2
53 | N/C(=N\c1nc2c(c(=O)[nH]1)CCC2)Nc1cccc2ccccc12 | -2.55
54 | O=C(C1CCC(=O)N(C2CCCC2)C1)N1CCN(Cc2cccc(Cl)c2)CC1 (centres unmarked) | 8.65
55 | Cc1ccc(Cn2nc(C)c(NC(=O)CCCn3nc(C)c([N+](=O)[O-])c3C)c2C)cc1 | 9.56
56 | O=C(N/N=C/c1sc(=O)n(Cc2ccc(Br)cc2)c1Cl)c1ccco1 | 11
57 | COc1ccccc1CNC(=O)CCN1C(=O)COc2ccccc21 | 10.4
58 | COc1ccc(NC(=O)C(C)Sc2nnc(C3CC3)n2C2CC2)cc1 (centres unmarked) | 3.89
59 | Cc1ccc(S(=O)(=O)N(C)C)cc1NC(=O)COc1cccc(-n2cnnn2)c1 | 4.34
60 | O=C(CN1C(=O)COc2ccc(S(=O)(=O)N3CCCCCC3)cc21)NCc1ccc(F)cc1 | 6.22
61 | Cc1ccc(N(CC(=O)NCCc2ccccc2)S(=O)(=O)c2c(C)noc2C)cc1 | -2.67
62 | CCN(CC)S(=O)(=O)c1ccc(C(=O)NC(=S)N(CCO)Cc2ccccc2)cc1 | 13.1
63 | CCCc1[nH]nc2c1C(c1ccc(OCCN3CCOCC3)c(OC)c1)C(C#N)=C(N)O2 (centres unmarked) | 4.01

Row | Compound | hERG current change (%, negative = inhibition) at 1uM [%]
64 | CC(=O)c1c(C)c(C)c2n1CCn1c(C)ccc1-2 | 14.4
65 | COc1ccc(-c2nnc(SCC(=O)NC(=O)Cc3ccccc3)n2C)cc1 | 3.32
66 | COc1cc(CN2CCNC(=O)C2CC(=O)NCCC2=CCCCC2)cc(OC)c1 (centres unmarked) | 12.8
67 | COc1cc([N+](=O)[O-])ccc1NC(=O)Nc1cnccn1 | -0.389
68 | O=C1COc2ccc(-c3csc(=Nc4ccc(OC(F)F)cc4)n3CC3CCCO3)cc2N1 (centres unmarked) | -0.709
69 | COC(=O)c1cc(C(=O)OCC(=O)Nc2ccccc2OC(F)F)cc([N+](=O)[O-])c1 | 3.43
70 | COc1ccc(-n2cnc3c(cnn3CCC#N)c2=N)cc1 | -3.21
71 | Cc1cccc(C(=O)NCCN2CCN(c3ccccc3)CC2)c1.Cl | -12.7
72 | O=C(N/N=C/c1ccc([N+](=O)[O-])cc1)c1ccc(NS(=O)(=O)c2cccs2)cc1 | 4.81
73 | O=[N+]([O-])c1cc(C(F)(F)F)cc([N+](=O)[O-])c1NCCNC(=S)Nc1cccc(F)c1 | 6.4
74 | COc1ccccc1/C=C(/C(=O)OCC(=O)Nc1ccccc1C(C)C)c1ccccc1 | 10.7
75 | CCC/C(=N\NC(=O)c1ccc(CSc2nncn2C)cc1)c1ccccc1 | 7.72
76 | CC(=O)N(C)C(c1ccc(N(C)C)cc1)c1nnnn1-c1c(C)cccc1C (centres unmarked) | 4.13
77 | COc1cc(CCC(=O)N2CCN(c3cccc(C)c3C)CC2)cc(OC)c1OC | 12.1
78 | Cc1cccc(NC(=O)Nc2ccc(Cl)c(Cl)c2)n1 | -0.04
79 | C#CCOCCOCCOCCNc1nc(N2CCN(C(=O)C(Cc3ccc(O)cc3)n3cc(C(N)CC(C)C)nn3)CC2)nc(N2CCN(C(=O)C(Cc3cc4ccccc4[nH]3)n3cc(C(N)Cc4ccc(O)cc4)nn3)CC2)n1.Cl (centres unmarked) | 2.94
80 | COc1ccc(Nc2nc(N)nc(SCc3nnc(C)s3)n2)cc1 | 8.54
81 | Cc1cc(N2CCOCC2)nc2ccc(NC(=S)NC(C)C)cc12 | 2.36
82 | COc1ccc(NC(=O)c2ccc3c(c2)OCO3)cc1Cl | 9.69
83 | CN(CC(=O)Nc1ccccc1Sc1ccccc1)C1CCCCC1 | 8.53
